From the supplement of paper PMC7826260
Some of the results follow. One pool of 16,384 single-stranded DNAs met each Rep nickase domain in vitro (1 h at 37 °C, 3 µM enzyme); the outer parts of the 90-letter strands are left off. The score is log2 (uncut reads / reads without enzyme); strong cutting gives strongly negative numbers. There is no active / inactive call. The scaling is to total reads; values above 0 arise when much of the pool is cut.

How the values were obtained:
Test in all cases: uncleaved DNA left, log2 of reads against the no-enzyme library (log2 ratio); higher = less cleavage (more negative = more Rep cleavage of the k-mer); sequences stand for … in CTCGTCCG…ACCGGAGA
[1] = test system: T1, Rep nickase domain of Muscovy duck circovirus
T1 sequence (protein, residues 1-111, tag omitted): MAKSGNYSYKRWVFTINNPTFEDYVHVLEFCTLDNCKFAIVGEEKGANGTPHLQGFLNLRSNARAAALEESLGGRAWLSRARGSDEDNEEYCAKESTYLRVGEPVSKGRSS
Experimental: (§1)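 A pool of 90-nt single-stranded DNAs with seven random bases just before the constant AC of the nick site (name = the seven bases) was cut by 3 µM recombinant His6-SUMO-tagged Rep nickase domain (300 nM DNA, 50 mM HEPES pH 8.0, 50 mM NaCl, 1 mM MnCl2, 1 h, 37 °C, three replicates). Uncut DNA was amplified and sequenced.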

[2] = test system: T2, Rep nickase domain of banana bunchy top virus
T2 sequence (protein, residues 1-94, tag omitted): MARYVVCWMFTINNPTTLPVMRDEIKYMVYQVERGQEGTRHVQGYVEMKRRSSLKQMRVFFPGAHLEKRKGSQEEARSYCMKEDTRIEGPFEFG
Experimental: as §1

[3] = test system: T3, Rep nickase domain of cabbage leaf curl virus
T3 sequence (protein, residues 1-116, tag omitted): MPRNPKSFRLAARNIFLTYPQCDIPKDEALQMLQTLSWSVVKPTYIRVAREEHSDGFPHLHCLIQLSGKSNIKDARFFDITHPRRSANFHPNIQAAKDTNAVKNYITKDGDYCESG
Experimental: as §1

[4] = test system: T4, Rep nickase domain of chickpea chlorotic dwarf virus
T4 sequence (protein, residues 1-124, tag omitted): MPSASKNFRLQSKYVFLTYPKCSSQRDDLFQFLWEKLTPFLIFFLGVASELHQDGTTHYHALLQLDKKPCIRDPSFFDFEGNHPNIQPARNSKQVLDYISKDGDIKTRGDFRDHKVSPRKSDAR
Experimental: as §1

[5] = test system: T5, Rep nickase domain of faba bean necrotic yellows virus
T5 sequence (protein, residues 1-98, tag omitted): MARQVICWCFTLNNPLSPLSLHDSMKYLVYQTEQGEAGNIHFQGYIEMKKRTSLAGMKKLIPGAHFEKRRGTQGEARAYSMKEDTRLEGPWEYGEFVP
Experimental: as §1

[6] = test system: T6, Rep nickase domain of maize striate mosaic virus
T6 sequence (protein, residues 1-117, tag omitted): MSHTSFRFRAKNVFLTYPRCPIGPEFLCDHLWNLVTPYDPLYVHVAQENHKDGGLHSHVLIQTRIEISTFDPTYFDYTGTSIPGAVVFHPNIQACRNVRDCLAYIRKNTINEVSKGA
Experimental: as §1

[7] = test system: T7, Rep nickase domain of porcine circovirus 2
T7 sequence (protein, residues 2-116, tag omitted): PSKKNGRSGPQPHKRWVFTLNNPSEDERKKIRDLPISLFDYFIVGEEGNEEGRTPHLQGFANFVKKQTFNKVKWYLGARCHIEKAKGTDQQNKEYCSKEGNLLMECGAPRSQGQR
Experimental: as §1

[8] = test system: T8, Rep nickase domain of tomato yellow leaf curl virus
T8 sequence (protein, residues 1-136, tag omitted): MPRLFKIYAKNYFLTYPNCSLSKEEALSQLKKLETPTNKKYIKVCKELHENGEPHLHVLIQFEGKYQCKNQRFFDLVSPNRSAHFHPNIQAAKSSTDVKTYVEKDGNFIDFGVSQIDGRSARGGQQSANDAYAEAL
Experimental: as §1

[9] = test system: T9, Rep nickase domain of wheat dwarf virus
T9 sequence (protein, residues 1-137, tag omitted): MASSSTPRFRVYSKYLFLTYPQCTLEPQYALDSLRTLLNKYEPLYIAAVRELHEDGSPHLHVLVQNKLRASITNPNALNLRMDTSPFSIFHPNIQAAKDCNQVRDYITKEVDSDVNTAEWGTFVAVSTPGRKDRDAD
Experimental: as §1

Row | Sequence | uncleaved DNA left (log2) [1] | uncleaved DNA left (log2) [2] | uncleaved DNA left (log2) [3] | uncleaved DNA left (log2) [4] | uncleaved DNA left (log2) [5] | uncleaved DNA left (log2) [6] | uncleaved DNA left (log2) [7] | uncleaved DNA left (log2) [8] | uncleaved DNA left (log2) [9]
1 | GAACATT | -0.0447 | 0.165 | 0.741 | 1.6 | -0.0412 | 2.1 | 0.0623 | 0.0784 | 0.242
2 | GGGTGGC | 0.051 | 0.0641 | 0.79 | 1.74 | -0.0187 | 2.1 | 0.211 | 0.0599 | 0.0917
3 | CACTTAA | -0.206 | -0.12 | -0.205 | -1.07 | -0.00865 | -1 | -1.69 | -0.174 | -0.0975
4 | GGAACTA | -0.00786 | 0.0977 | 0.78 | 1.85 | -0.0601 | 2.13 | 0.202 | 0.0593 | 0.164
5 | GCACGCC | -0.0803 | -0.111 | -0.253 | -0.0418 | -0.127 | -0.422 | 0.0162 | -0.123 | -0.11
6 | CCCATAC | 0.102 | 0.0228 | 0.00987 | -0.68 | 0.2 | -0.73 | 0.125 | 0.093 | 0.0718
7 | AGCTATC | -0.0836 | -0.0407 | 0.153 | 0.547 | -0.0541 | 0.0642 | -0.165 | 0.0703 | 0.0241
8 | TATCGGA | -0.0154 | 0.067 | 0.168 | 0.279 | -0.0827 | -0.0729 | 0.0569 | 0.0507 | -0.0499
9 | CGTCACC | 0.0237 | 0.0155 | 0.0925 | -0.0402 | 0.0149 | -0.0902 | -0.0545 | -0.00969 | 0.0673
10 | CAACATT | -0.0399 | 0.0891 | -1.92 | -2.53 | 0.0183 | 0.0197 | -0.512 | -0.0852 | -0.193
11 | AACCGGT | -0.213 | -0.219 | 0.104 | 0.434 | -0.18 | 0.865 | -0.161 | -0.269 | -0.0425
12 | CATTGTA | -0.531 | -0.657 | -0.748 | -1.02 | 0.041 | -1.19 | -1.02 | 0.0751 | -0.0714
13 | GATCACG | -0.0678 | -0.165 | -0.69 | -0.431 | -0.0577 | -1.13 | -0.032 | -0.0683 | -0.255
14 | AATTTAT | -3.42 | -3.29 | -0.0718 | -1.61 | 0.0415 | -0.285 | -3.74 | -0.00886 | 0.0954
15 | TATAGTA | -0.178 | -0.181 | -0.252 | -2.05 | 0.00504 | -0.517 | -0.474 | -0.0528 | -0.15
